Among the test systems are MZ2-MEL; MeWo; RPMI7951; RVH-421; SkMel28; SkMel30; UACC62; WM115; WM1716; WM1745; WM3526; WM3619; WM451Lu; SkMel2; SkMel5; UACC257.
What all share (assay): cell count relative to DMSO control; melanoma cells; higher = more viable cells
Details in all cases: library dose: low library concentration; 72 h

Each structure is given as a SMILES string. This is one part of the list. Many values rest on one well or one pass, so single values are uncertain.

Consider nine compounds from the supplement of paper PMC4604168 (melanoma cell lines).
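Further: cell number obtained by counting DAPI-stained nuclei in high-throughput microscope images with image analysis software, screen run in 1,536-well plates.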

In the case of `O=C(O)[C@@H]1[O][Sb](=[O])([O][Sb]2(=[O])[O][C@H]([C@H](O)CO)[C@H](O)[C@H](C(=O)O)[O]2)[O][C@H]([C@H](O)CO)[C@@H]1O` (stereo partly specified) [stibogluconate] + C[C@]1(c2nc3c(C(N)=O)cccc3[nH]2)CCCN1 [Veliparib] (first compound 2 µM, partner dose 1.4 µM), the cell count in the test on MZ2-MEL came to 101%; with MeWo, 95.4%; in the test with RPMI7951, 83.6%; in the test with RVH-421, 109%; in the test with SkMel28 it was 89.8%; in the test with SkMel30, 91.7%. Also, the cell count in the test on UACC62 came to 86.9%; in the test on WM115 it was 95.7%; in the test on WM1716, 90.5%; in the test with WM1745, 95.8%; in the test with WM3526, 105%; in the test on WM3619 it was 103%. Also, the cell count in the test on WM451Lu stood at 119%.
Consider `O=C(Nc1cc(C(F)(F)F)cc(C(F)(F)F)c1)c1cc(Cl)ccc1O` + C=CCn1c(=O)c2cnc(Nc3ccc(N4CCN(C)CC4)cc3)nc2n1-c1cccc(C(C)(C)O)n1 [MK1775] (first compound 0.016 µM, partner dose 0.02 µM), for which the cell count is 92.3% in the test with MeWo; 113% in the test with RPMI7951; 98% in the test with RVH-421; 85.7% in the test on SkMel28; 100% with SkMel2; 97.2% in the test on SkMel30. Further, the cell count was 89.9% with SkMel5; 84.9% with UACC257; 92.4% in the test with UACC62; 85.7% with WM115; 98.4% in the test on WM1716; 91.3% in the test with WM1745. Moreover, the cell count with WM3526 came out at 113%; with WM3619 it was 96.8%; in the test with WM451Lu, 85%.
As for `O=C(Nc1ccccc1)c1cc([N+](=O)[O-])ccc1Cl` + CCCCCCCCCCCC1=C(O)C(=O)C=C(O)C1=O [Embelin] (first compound 2 µM, partner dose 1.2 µM), the cell count amounted to 90.9% with MZ2-MEL; 107% in the test with MeWo; 122% with RPMI7951; 90.5% in the test on RVH-421; 105% with SkMel28; 92.1% in the test on SkMel30. The cell count was 96.1% with SkMel5; 91.2% in the test on UACC257; 87.8% in the test with UACC62; 96% in the test on WM115; 114% in the test with WM1716; 87.4% in the test on WM1745. The cell count with WM3526 was 82.8%; with WM3619 it was 93.9%; in the test on WM451Lu, 108%.
For `O=C(O)[C@@H]1[O][Sb](=[O])([O][Sb]2(=[O])[O][C@H]([C@H](O)CO)[C@H](O)[C@H](C(=O)O)[O]2)[O][C@H]([C@H](O)CO)[C@@H]1O` (stereo partly specified) [stibogluconate] + Clc1ccc(Nc2nnc(Cc3ccncc3)c3ccccc23)cc1 [vatalanib] (first compound 2 µM, partner dose 2 µM), the cell count in the test on MZ2-MEL was found to be 89.7%; in the test with MeWo, 89.5%; with RPMI7951, 112%; with RVH-421 it was 112%; in the test on SkMel28, 105%; in the test with SkMel30, 113%. In addition, the cell count in the test on UACC62 was 106%; in the test on WM115, 107%; in the test on WM1716 it was 98.2%; with WM1745 it was 93.5%; with WM3526, 114%; in the test on WM3619, 106%. The cell count in the test on WM451Lu was determined as 108%.
Regarding `O=C(O)[C@@H]1[O][Sb](=[O])([O][Sb]2(=[O])[O][C@H]([C@H](O)CO)[C@H](O)[C@H](C(=O)O)[O]2)[O][C@H]([C@H](O)CO)[C@@H]1O` (stereo partly specified) [stibogluconate] + O=S(=O)(c1ccccc1)N(CC(F)(F)F)c1ccc(C(O)(C(F)(F)F)C(F)(F)F)cc1 [T0901317] (first compound 2 µM, partner dose 1.4 µM), the cell count with MeWo is 106%; in the test on RPMI7951, 128%; with RVH-421 it was 91.3%; with SkMel28 it was 118%; in the test with SkMel2, 91.1%; in the test on SkMel30, 106%. Moreover, the cell count with SkMel5 turned out to be 105%; in the test on UACC257, 129%; with UACC62, 91.2%; with WM115 it was 103%; in the test with WM1716, 104%; in the test with WM1745, 77.4%. For the same compound, the cell count in the test on WM3526 is 96.6%; in the test with WM3619 it was 108%; with WM451Lu it was 109%.
Consider `O=C(O)c1ccc2c(c1)nc(Nc1cccc(Cl)c1)c1ccncc12` + C=CCn1c(=O)c2cnc(Nc3ccc(N4CCN(C)CC4)cc3)nc2n1-c1cccc(C(C)(C)O)n1 [MK1775] (first compound 0.4 µM, partner dose 0.02 µM), for which the cell count with MeWo amounted to 94.1%; with RPMI7951, 100%; in the test with RVH-421, 86.9%; in the test on SkMel28, 89.3%; with SkMel2 it was 82.6%; in the test on SkMel30 it was 85.4%. In addition, the cell count with SkMel5 turned out to be 82.9%; in the test on UACC257 it was 113%; with UACC62, 79.7%; in the test on WM115, 88.4%; with WM1716, 80.4%; in the test with WM1745, 88.8%. Further, the cell count came out at 90% with WM3526, 66.9% in the test with WM3619 and 91.3% in the test on WM451Lu.
For `O=C(Nc1cc(C(F)(F)F)cc(C(F)(F)F)c1)c1cc(Cl)ccc1O` + COc1ccc2c(c1)CCC1C2CCC2(C)C(NCCCCCCN3C(=O)C=CC3=O)CCC12 [U73122] (first compound 0.016 µM, partner dose 0.4 µM), the cell count stood at 104% in the test with MeWo; 85.8% in the test on RPMI7951; 89.4% in the test with RVH-421; 86.6% in the test on SkMel28; 103% in the test on SkMel2; 126% in the test on SkMel30. For the same compound, the cell count in the test with SkMel5 turned out to be 98.1%; in the test with UACC257, 124%; in the test on UACC62, 98.6%; with WM115, 101%; in the test on WM1716, 103%; with WM1745 it was 107%. Further, the figures for the cell count in the test with WM3526, with WM3619 and with WM451Lu were 104%, 123% and 98.2%, respectively.
Turning to `Cn1nnc2c(C(N)=O)ncn2c1=O` [temozolomide] + N#Cc1c(O)c2c(-c3ccc(-c4ccccc4O)cc3)csc2[nH]c1=O [A769662] (first compound 2 µM, partner dose 2 µM), the cell count was found to be 88.7% in the test with MZ2-MEL; 111% in the test on MeWo; 89.7% with RPMI7951; 96.3% in the test with RVH-421; 94.1% in the test on SkMel28; 94.9% in the test on SkMel30. In addition, the cell count in the test on SkMel5 was found to be 116%; in the test on UACC257 it was 69.3%; in the test on UACC62 it was 80.8%; in the test with WM115 it was 110%; with WM1716, 96.3%; with WM1745 it was 106%. The cell count with WM3526 was 112%; with WM3619, 73.6%; with WM451Lu it was 109%.
Take `Cc1cc(N2CCOCC2)cc2[nH]c(-c3c(NC[C@@H](O)c4cccc(Cl)c4)cc[nH]c3=O)nc12` + CCc1ccc(CCOc2ccc(CC3SC(=O)NC3=O)cc2)nc1 [pioglitazone] (first compound 0.2 µM, partner dose 2 µM): the cell count stood at 102% in the test on MZ2-MEL; 93% in the test on MeWo; 122% with RPMI7951; 97.1% in the test on RVH-421; 83.7% in the test with SkMel28; 78.7% in the test on SkMel30. In addition, the cell count in the test on SkMel5 stood at 84.9%; in the test with UACC257 it was 83.1%; in the test with UACC62, 76.5%; with WM115, 96.6%; with WM1716 it was 103%; in the test on WM1745, 76.2%. The cell count came to 116% in the test on WM3526, 88% with WM3619 and 94.2% with WM451Lu.
